# About 2,200 (0.71%) of roughly 310,000 compounds showed an effect of 50% or more. The effect is printed as a negative number. The list shows a part of the results.
# Target: human ether-à-go-go-related gene (hERG) potassium channel (human, UniProt Q12809)
# Experiment: primary screen, population patch clamp on CHO cells stably expressing hERG
# human ether-à-go-go-related gene (hERG) potassium channel, sequence (Q12809 whole entry, looked up): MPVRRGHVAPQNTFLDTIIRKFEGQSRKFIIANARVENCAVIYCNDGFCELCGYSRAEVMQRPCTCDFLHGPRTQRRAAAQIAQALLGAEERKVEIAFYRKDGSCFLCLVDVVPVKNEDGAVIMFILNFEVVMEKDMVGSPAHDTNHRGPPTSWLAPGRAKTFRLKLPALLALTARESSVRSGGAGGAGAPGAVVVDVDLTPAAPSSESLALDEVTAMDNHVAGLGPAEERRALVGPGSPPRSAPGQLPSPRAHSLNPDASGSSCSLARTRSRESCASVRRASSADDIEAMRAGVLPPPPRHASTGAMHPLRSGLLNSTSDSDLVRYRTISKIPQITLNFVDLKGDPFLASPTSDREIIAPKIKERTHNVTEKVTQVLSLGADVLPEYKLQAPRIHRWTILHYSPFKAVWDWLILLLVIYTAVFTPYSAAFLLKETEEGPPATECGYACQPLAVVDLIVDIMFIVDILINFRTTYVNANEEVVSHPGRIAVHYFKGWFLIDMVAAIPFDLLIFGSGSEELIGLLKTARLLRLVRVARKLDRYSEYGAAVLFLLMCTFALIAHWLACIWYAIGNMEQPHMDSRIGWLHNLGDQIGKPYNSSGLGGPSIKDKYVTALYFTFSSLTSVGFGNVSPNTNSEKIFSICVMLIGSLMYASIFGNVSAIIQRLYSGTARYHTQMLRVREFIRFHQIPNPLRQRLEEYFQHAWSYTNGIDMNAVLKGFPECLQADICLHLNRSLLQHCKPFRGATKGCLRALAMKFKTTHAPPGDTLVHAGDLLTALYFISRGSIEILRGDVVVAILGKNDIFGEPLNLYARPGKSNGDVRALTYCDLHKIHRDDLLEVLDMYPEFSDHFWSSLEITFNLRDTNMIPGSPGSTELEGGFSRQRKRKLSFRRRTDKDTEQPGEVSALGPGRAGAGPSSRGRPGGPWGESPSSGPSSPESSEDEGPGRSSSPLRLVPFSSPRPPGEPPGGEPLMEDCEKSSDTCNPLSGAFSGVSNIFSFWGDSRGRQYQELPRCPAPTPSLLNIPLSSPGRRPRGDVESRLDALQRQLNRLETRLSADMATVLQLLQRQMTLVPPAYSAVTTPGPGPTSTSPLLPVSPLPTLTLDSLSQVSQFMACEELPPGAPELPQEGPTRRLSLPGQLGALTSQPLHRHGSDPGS
row,SMILES,"hERG current change (%, negative = inhibition) at 1uM"
1,CCOC(=O)N1CCN(C(=O)C2CCCN(S(C)(=O)=O)C2)CC1 (centres unmarked),14.9%
2,Cc1cccc(/C=N/N2CCN(c3ccccc3)CC2)c1,5.69%
3,Cc1ccc(SCC(=O)NC(C)c2ccccc2)cc1 (centres unmarked),10.3%
4,CCc1ccccc1NC(=O)CSc1n[nH]c(C)c1[N+](=O)[O-],3.17%
5,N#C/C(=N\Nc1c(Cl)cccc1Cl)C(=O)NN,12.9%
6,O=C(C1=C[C@@H]2[C@H]3C(=O)N(c4cccc(Cl)c4)C(=O)[C@H]3[C@@H](C(=O)c3ccc(Cl)cc3)N2C=C1)c1ccccc1,10.2%
7,O=C(Cc1ccccc1)N1CCN(C/C=C/c2ccccc2)CC1,-6.02%
8,CCOC(=O)C1CCN(C(=O)/C=C/c2ccc(OC)cc2)CC1,-5.2%
9,COc1cc(NC(=O)COC(=O)c2cnccn2)c(C)cc1[N+](=O)[O-],9.12%
10,CCN(CC)CCCn1c(=S)[nH]c2cc(OC)c(OC)cc2c1=O,3.77%
11,Cc1ccc2c(c1)NC(=O)C(CC(=O)NCCN(CC(C)C)CC(C)C)O2 (centres unmarked),0.19%
12,O=C(CCc1nc2ccccc2s1)Nc1ccccc1,19.2%
13,NNC(=O)CNC(=O)CNS(=O)(=O)c1ccccc1,5.81%
14,Cc1ccc(S(=O)(=O)Nc2ccc3c(c2)ncn3C(C)(C)C)cc1,-7.29%
15,COc1cc(C(=O)NC2CCCc3ccccc32)cc(OC)c1OC (centres unmarked),11.5%
16,O=C(CN1C(=O)COc2ccc(Cl)cc21)Nc1ccc(N2CCOCC2)cc1,14.4%
17,CC(=O)c1cnc2nc(SCc3ccccc3)nn2c1C,11.4%
18,O=C(C1CCCN(S(=O)(=O)c2cc(Cl)ccc2Cl)C1)N1CCOCC1 (centres unmarked),6.01%
19,COc1ccc(N)c2c1OCCC2=O,-2.82%

row,SMILES,"hERG current change (%, negative = inhibition) at 1uM"
1,Nc1nc2n(n1)C(c1cccc(Cl)c1)CC(c1ccc(F)cc1)N2 (centres unmarked),-9.33%
2,CCOc1ccc2nc(Nc3nc(CSc4nnnn4-c4ccccc4)cc(=O)[nH]3)nc(C)c2c1,13.5%
3,O=C(NC1CCC(O)CC1)c1ccccc1OCc1ccc(F)cc1 (centres unmarked),0.37%
4,CCSCc1nnc(SCC(=O)Nc2cc(F)ccc2C)n1C,9.18%
5,CC1=CC(C)(C)N2C(=O)C3(C(C#N)=C(N)Oc4cc(C)oc(=O)c43)c3cccc1c32 (centres unmarked),7%
6,COc1cccc(C2C3=C(N=C4SCC(=O)N42)c2ccccc2CC3)c1OC (centres unmarked),-0.0544%
7,COc1ccccc1/C=C/C(=O)Nc1cccnc1Cl,20.2%
8,N#Cc1nnn(-c2ccc(Cl)cc2)c1N,11.1%
9,C=C(C)C(=O)N1CC2(CC(c3cccc(NC(=O)/C=C\C)c3)=NO2)C[C@H]1C(N)=O (some centres unmarked),6.91%
10,O=S(=O)(c1cccc(-c2cn3cccnc3n2)c1)N1CCCCCC1,-4.89%
11,Cc1ccc(NC(=O)[C@@H]2CCCN2C(=O)[C@@H]2Cc3ccccc3CN2)c(C)c1,13.2%
12,COc1ccc(S(=O)(=O)N2CCN(Cc3ccccc3[N+](=O)[O-])CC2)cc1,10.3%
13,CC1(C)NC(=O)N(CCCOc2ccc3c(c2)CCC3)C1=O,-9.06%
14,Cc1ccc(C)c(NC(=O)c2ccccc2O)c1,10.5%
15,O=c1[nH]c(O)c(C=Nc2cc(F)cc(F)c2)c(=O)[nH]1,8.43%
16,O=C(Nc1ccc2c(c1)OCCO2)c1cccc(Br)c1,12.9%
17,COc1cc(/C=N/NC(=O)c2cc(-c3ccccc3C)nc3ccccc23)cc(OC)c1O,14.9%
18,O=C(COc1ccc2c(c1)OCO2)Nc1nnc(Cc2ccccc2)s1,28.4%
19,O=C(c1ccco1)N1CCN(C(c2ccccn2)c2nnnn2C2CCCC2)CC1 (centres unmarked),3.62%

row,SMILES,"hERG current change (%, negative = inhibition) at 1uM"
1,O=[N+]([O-])c1ccc(O)c(/C=N/n2c(CO)nc3ccccc32)c1,12%
2,Cc1ccc(S(=O)(=O)c2nnn3c2nc(NC2CCN(Cc4ccccc4)CC2)c2ccccc23)cc1C,10.6%
3,O=C(Nc1ccc(F)cc1)C(=O)c1cn(CC(=O)N2CCOCC2)c2ccccc12,13.4%
4,O=S(=O)(c1cccc(Cl)c1)N1CCC(c2nc3ccccc3[nH]2)CC1,6.83%
5,Cc1ccc(-c2nnc(SCC(=O)Nc3ccc(S(=O)(=O)N4CCCCCC4)cc3)o2)cc1,2.1%
6,O=C(CCCC(=O)N(CC(=O)NC1CCCCC1)Cc1ccccc1)Nc1ccccn1,11.4%
7,CCc1ccccc1NS(=O)(=O)c1ccc2[nH]cc(C(=O)NCc3ccco3)c(=O)c2c1,14.2%
8,Cc1c2cnn(CC(=O)O)c(=O)c2c(C)n1Cc1ccccc1,13.8%
9,Fc1ccc(C2CC(c3ccco3)n3ncnc3N2)cc1 (centres unmarked),2.06%
10,Cc1ccc(Cn2c(Sc3ncccn3)nc3c2c(=O)[nH]c(=O)n3C)cc1,13.1%
11,COc1ccc(CCC(=O)Nc2sccc2C#N)cc1,7.37%
12,CC1(C)CC(=O)C=C(NCc2cccc(C(F)(F)F)c2)C1,1.96%
13,CCCCn1c(N)c(N(CCC(C)C)C(=O)c2ccc(COc3ccccc3)o2)c(=O)[nH]c1=O,5.66%
14,CC(OC(=O)Cc1c(F)cccc1Cl)C(=O)NC1CCCCC1C (centres unmarked),11.9%
15,COc1ccc(CN2C(=O)c3cccnc3C2Nc2cc(Cl)ccc2OC)cc1 (centres unmarked),8.39%
16,COc1ccccc1NC(=O)c1nc(S(=O)(=O)Cc2ccccc2)ncc1Cl,1.24%
17,COc1cc(C(=O)N(C)CC2CCN(CCc3cccc(C(F)(F)F)c3)CC2)ccc1C,-63.8%
18,O=C(CN(CCc1ccccc1)C(=O)c1csnn1)NCc1ccc(F)cc1,3.04%
